Experimental data published in the RNAGym collection of RNA variant scans (doi:10.7554/elife.90254).
Read counts are not given, so values of variants with three or more changes are uncertain.

B1: LINE1-full (parent)
chain: UACGUAGGUGGUUUUCCCCUGAUAGUGCUAAGGGGGCCUGGAAGUUUGGACUGGGCAGAGCUCAACACAGCGUGGCAAAGUGGCUGUGGCUAGACUGCCUCUCUGGAUUCCUCGUCACUCAGCAGGGCAUCUCUGAGAGAAAUGCC

Variants of: B1
Assay: self-cleavage, relative activity (ratio to wild type); higher = more cleavage; in vitro, sequencing; the parent is a self-cleaving ribozyme

| Variant | self-cleavage |
| --- | --- |
| UACGUAGGUGGUUUUCCCCUGAUAGUGCUAAGGGGGCCUGGAAGUUGUGACUGGGCAGAGCUCAACGCAGCGUGGCAAAUCGGCUGUGGCUAGACUGCCUCUCUGGAUUCCUCGCCACUCAGCAGGGCAUCUCUGAGAGAAAUGCC [U47G G48U A67G G80U U81C U115C] | 1.84 |
| UACGUAGGUGGUUUUCCCCUGAUAGUGCUAAGGGGGCCUGGAAGUUGGGACUGGGCAGAGCCCAACACAGCGUGGCAAAGUGGCUGUGGCUAGACUGCCUCUCUGGAUUCCUCGUCACUCAGCAGGGCAUCUCUGAGAGAGAUGCC [U47G U62C A141G] | 0.08 |
| UACGUAGGUGGUUUUCCCCUGAUAGUGCUAAGGGGGCCUGGAAGUUCGGACUGGGCAGAGCUCAACACAGCGUGGCAAAGUGGCUGUGGCUAGACAGCCUCUCUGGAUUCCUCGUCACUCAGCAGGGCAUCUCUGAGAGAAACGCC [U47C U96A U143C] | 0.14 |
| UACGUAGGUGGUUUUCCCCUGAUAGUGCUAAGGGGGCCUGGAAGUUCGGACUGGGCAGAGCUCAACACAGCGUGGCAAAGUGGCUGUGGCUAGACUGCCACUCUGGAUUCCCCGUCACUCAGCAGGGCAUCUCUGAGAGAAAUGCC [U47C U100A U112C] | 1.47 |
| UACGUAGGUGGUUUUCCCCUGAUAGUGCUAAGGGGGCCUGGAAGUUCGGACUGGGCAGAGCUCAACACAGCGUGGCAAAGUGGCCGUGGCUAGACUGCCUCUCUGGAUUCCUCGUCACUCAGCAGGGCAUCUCUGAGAGAAAAGCC [U47C U85C U143A] | 0.22 |
| UACGUAGGUGGUUUUCCCCUGAUAGUGCUAAGGGGGCCUGGAAGUUCGGACUGGGCAGAGCUCAACACAGCGUGGCAAAGUGGCUGUGGCUAGACUGCCUCUCUGGAUUCCACGUCACUCAGCGGGGCAUCUCUGAGAGAAAUGCC [U47C U112A A124G] | 1.23 |
| UACGUAGGUGGUUUUCCCCUGAUAGUGCUAAGGGGGCCUGGAAGUUCGGACUGGGCAGAGCUCAACACAGCGUGGCAAAGUGGCAGUGGCUAGACUGCCUCUCUGGAUUCCUCGUCACUCAGCAGGGCAUCUCUGAGAGACAUGCC [U47C U85A A141C] | 0.34 |
| UACGUAGGUGGUUUUCCCCUGAUAGUGCUAAGGGGGCCUGGAAGUUGGGACUGGGCAGAGCACAACACAGCGUGGCAAAGUGGCUGUGGCUAGACUGCCUCUCUGGGUUCCUCGUCACUCAGCAGGGCAUCUCUGAGAGAAAUGCC [U47G U62A A107G] | 0.36 |
| UACGUAGGUGGUUUUCCCCUGAUAGUGCUAAGGGGGCCUGGAAGUUUAGACUGGGCAGAGCUCAACACAGCGUGGCAAAGUGGCUGUGGCUAGACUGCCUCUCUGGGUUCCUCGUCACUCAGCAGGGCAUCUCCGAGAGAAAUGCC [G48A A107G U134C] | 1.71 |
| UACGUAGGUGGUUUUCCCCUGAUAGUGCUAAGGGGGCCUGGAAGUUCGGACUGGGCAGAGCUCAACACAGCGUGGCAAAGUGGCUGUGGCUAGACUGCCUCUCUGGAUUCCUCGCCACUCAGCAGGGCAUCUCUGUGAGAAAUGCC [U47C U115C A136U] | 1.43 |
| UACGUAGGUGGUUUUCCCCUGAUAGUGCUAAGGGGGCCUGGAAGUUUAGACUGGGCAAAGCUCAACACAGCGUGGCGAAGUGGCUGUGGCUAGACUGCCUCUCUGGAUUCCUCGUCACUCAGCAGGGCAUCUCUGAGAGAAAUGCC [G48A G58A A77G] | 0.05 |
| UACGUAGGUGGUUUUCCCCUGAUAGUGCUAAGGGGGCCUGGAAGUUCGGACUGGGCAGAGCUCAACACAGCGUGGCAAAGUGGCUGUGGCUAGACUGCCUCUCUGGAUUCCUCGUCACUCAGCAGGGCACCUCUGAGAGGAAUGCC [U47C U130C A140G] | 2.45 |
| UACGUAGGUGGUUUUCCCCUGAUAGUGCUAAGGGGGCCUGGAAGUUCGGACUGGGCAGAGCUCAACACAGCGUGGCAAAGUGGCUGAGGCUAGUCUGCCUCUCUGGAUUCCUCGUCACUCAGCAGGGCAUCUCUGAGAGAAAUGCC [U47C U87A A94U] | 0.14 |
| UACGUAGGUGGUUUUCCCCUGAUAGUGCUAAGGGGGCCUGGAAGUUGGGACUGGGCAGAGCUCAACACAGCGUGGCAAAGAGGCUGUGGCUAGACUGCCUCUCUGGAUUCCUCGUCACUCAGCAGGGCACCUCUGAGAGAAAUGCC [U47G U81A U130C] | 0.5 |
| UACGUAGGUGGUUUUCCCCUGAUAGUGCUAAGGGGGCCUGGAAGUUCGGACUGGGCAGAGCUCAACACAGCGUGGCAAAGUGGCUGCGGCUAGACUGUCUCUCCGGAUUCCUCGUCACUCAGCAGGGCGUCUCUGAGAGAAAUGCC [U47C U87C C98U U104C A129G] | 0 |
| UACGUAGGUGGUUUUCCCCUGAUAGUGCUAAGGGGGCCUGGAAGUUUAGACUGGGCAGAGCUCAACACGGCGUGGCAGAGUGGCUGUGGCUAGACCGCCUCUCUGGAUUCCUCGUCACUCAGCAGGGCAUCUCUGAGAGAAAUGCC [G48A A69G A78G U96C] | 0 |
| UACGUAGGUGGUUUUCCCCUGAUAGUGCUAAGGGGGCCUGGAAGUUUAGACUGGGCGGAGCUCAACACAGCGUGGCGAAGUGGCAGUGGCUAGACUGCCUCUCUGGAUUCCUCGUCACUCAGCAGGGUAUCUCUGAGAGAAAUGCC [G48A A57G A77G U85A C128U] | 0.05 |
| UACGUAGGUGGUUUUCCCCUGAUAGUGCUAAGGGGGCCUGGAAGUUCGGACUGGGCAGAGCUCAACACAGCGUGGCAAAGUGGCUGUGGCUAGACUGCCUCACUGGAUUCCUCGUCACUCAGCAGGGCAUCUCUGAGAGAAAAGCC [U47C U102A U143A] | 1.23 |
| UACGUAGGUGGUUUUCCCCUGAUAGUGCUAAGGGGGCCUGGAAGUUGGGACUGGGCAGAGCUCAACACGGCGUGGCAAAGUGGCUGUGGCUAGACUGCCUCUCUGGAUUCCUCGUCACUCAGCAGGGCAUCUCUGAGAGAAAAGCC [U47G A69G U143A] | 0 |
| UACGUAGGUGGUUUUCCCCUGAUAGUGCUAAGGGGGCCUGGAAGUUCGGACUGGGCAGAGCUCAACACAGCGUGGCAAAGUGGCUGUGGCUAGACUGCCUCUCUGGACUCCUCGUCACUCAGCAGGGCAUCUCUGAGAGAGAUGCC [U47C U108C A141G] | 1.39 |

| Variant | self-cleavage |
| --- | --- |
| UACGUAGGUGGUUUUCCCCUGAUAGUGCUAAGGGGGCCUGGAAGUUCGGACUGGGCAGAGCUCAACACAGCGUGGCAAAGUGGCUGUGGCUAGACUGCCUCUCCGGAUUCCUUGUCACUCAGCAGGGCAUCUCUGAGAGAAACGCC [U47C U104C C113U U143C] | 0.74 |
| UACGUAGGUGGUUUUCCCCUGAUAGUGCUAAGGGGGCCUGGAAGUUCGGACUGGGCAGAGCUCAACACAGCGUGGCAAAGUGGCUGUGGCUAGACUGCCUCUCUGGAUUCCUCGACACUCAGUAGGGCAUCUCUGAGAGAAAUGCC [U47C U115A C123U] | 0.99 |
| UACGUAGGUGGUUUUCCCCUGAUAGUGCUAAGGGGGCCUGGAAGUUCGGACUGGGCAGAGCUCAACACAGCGUGGCAAAGUGGCUGUGGCUAGACUGCCUCACUGGAUUCCUCGUCACUCAGCAGGGCAUCUCCGAGGGAAAUGCC [U47C U102A U134C A138G] | 0.92 |
| UACGUAGGUGGUUUUCCCCUGAUAGUGCUAAGGGGGCCUGGAAGUUCGGACUGGGCAGAGCUCAACACAGCGUGGCAAAGUGGCUGUGGCUAGACUGCCUCUCUGGAUUCCUCGGCACUCAGCAGGGCAUCUCUGAGAGAGAUGCC [U47C U115G A141G] | 1.96 |
| UACGUAGGUGGUUUUCCCCUGAUAGUGCUAAGGGGGCCUGGAAGUUCGGACUGGGCAGAGCUCAACACAGCGUGGCAAAGUGGCUGUGGCUAGACUGCCUCUCUGGAUACCUCGUCACUCAGCAGGGCAUCUCUGAGGGAAAUGCC [U47C U109A A138G] | 1.5 |
| UACGUAGGUGGUUUUCCCCUGAUAGUGCUAAGGGGGCCUGGAAGUUGGGACUGGGCAGAGCUCAACACAGCGUGGCAAAGUGGCUGUGGCUAGACUGCCUCUCCGGAUUCCUCGUCACUCAGCAGGGCAUCUCUGAGAGGAAUGCC [U47G U104C A140G] | 1.88 |
| UACGUAGGUGGUUUUCCCCUGAUAGUGCUAAGGGGGCCUGGAAGUUCGGACUGGGCAGAGCUCAACACAGCGUGGCAAAGUGGCUGUGGCUAGACUGCCUCCCUGGAUUCCUCGUCACUCAGCAGGGCAUCUCUGAGGGAAAUGCC [U47C U102C A138G] | 2 |
| UACGUAGGUGGUUUUCCCCUGAUAGUGCUAAGGGGGCCUGGAAGUUUAGGCUGGGCAGAGCUCAACACAGCGUGGCAGAGUGGCUGUGGCUAGACUGCCUCUCUGGAUUCCUCGUCACUCAGCAGGGCAUCUCUGGGAGAAAUGCC [G48A A50G A78G A136G] | 1.26 |
| UACGUAGGUGGUUUUCCCCUGAUAGUGCUAAGGGGGCCUGGAAGUUUAGACUGGGCAGAGCUCAACACAGCGUGGCAAGGUGGCUGUGGCUAGACUGCCUCUCUGGAUUCCUCGUCACUCAGCGGGGCAUCUCUGAGAGAAAUGCC [G48A A79G A124G] | 0.38 |
| UACGUAGGUGGUUUUCCCCUGAUAGUGCUAAGGGGGCCUGGAAGUUCGGACUGGGCAGAGCUCAACACAGCGUGGCAAAGUGGCUGUGGCUAGACUGCCUCUCUGGAUCCCUCGACAUUCAGCAUGGCAUCUCUGAGAGAAAUGCC [U47C U109C U115A C118U G125U] | 1.33 |
| UACGUAGGUGGUUUUCCCCUGAUAGUGCUAAGGGGGCCUGGAAGUUGGGACUGGGCAGAGCACAACACAGCGUGGCAAAGUGGCUGCGGCUAGACUGCAUCUCUGGAUUCCUCGUCACUCAGCAGGGCAUCUCUGAGAGAAAUGCC [U47G U62A U87C C99A] | 0.2 |
| UACGUAGGUGGUUUUCCCCUGAUAGUGCUAAGGGGGCCUGGAAGUUCGGACUGGGCAGAGCUCAACACAGCGUGGCAAAGUGGCUGUGGCUAGACCGCCUCUCUGGAUUCCUCGUCACCCAGCAGGGCAUCUCUGAGAGAAAUGCC [U47C U96C U119C] | 0.71 |
| UACGUAGGUGGUUUUCCCCUGAUAGUGCUAAGGGGGCCUGGAAGUUGGGACUGGGCAGAGCUCAACACAGCGUGGCAAAGUGGCUGUGGCUAGACUGCCUCUCUGGAUUCCUCGUCACUCAGCAGGGCAUCUCUGUGAGAAACGCC [U47G A136U U143C] | 1.21 |
| UACGUAGGUGGUUUUCCCCUGAUAGUGCUAAGGGGGCCUGGAAGUUCGGACUGGGCAGAGCUCAACACAGCGUGGCAAAGUGGCCGUGGCUAGACUGCCUCUCUGGAUUCCUCGUCACUCAGCAGGGCAUCUCUAAGAGAAAUGCC [U47C U85C G135A] | 0.33 |
| UACGUAGGUGGUUUUCCCCUGAUAGUGCUAAGGGGGCCUGGAAGUUCGGACUGGGCAGAGCUCAACACAGCGUGGCAAAGUGGCUGUGGCUAGACUGCCUCUCUGGAUUCCACGUCACUCAGCAAGGCAUCUCUGAGAGAAAUGCC [U47C U112A G125A] | 1.25 |
| UACGUAGGUGGUUUUCCCCUGAUAGUGCUAAGGGGGCCUGGAAGUUCGGACUGGGCAGAGCUCAACACAGCGUGGCAAAGUGGCUGUGGCUAGACUGCCUCUCUGGAUUCCUCGCCUCUCAGCAGGGCAUCUCUGAGAGAAAUGCC [U47C U115C A117U] | 1.93 |
| UACGUAGGUGGUUUUCCCCUGAUAGUGCUAAGGGGGCCUGGAAGUUCGGACUGGGCAGAGCUCAACACAGCGUGGCAAAGUGGCUGUGGCUAGACUGCCUCUCUGGACUCCUCGCCACUCAGCAGGGCAUCUCUGAGAGAAAUGCC [U47C U108C U115C] | 1.84 |
| UACGUAGGUGGUUUUCCCCUGAUAGUGCUAAGGGGGCCUGGAAGUUGGGACUGGGCAGAGCUCAACACAGCGUGGCAAAGUGGCUGUGGCUAGACUGCCACUCUGGAUUCGUCGUCACUCAGCAGGGCAUCUCUGAGAGAAAUGCC [U47G U100A C111G] | 0.77 |
| UACGUAGGUGGUUUUCCCCUGAUAGUGCUAAGGGGGCCUGGAAGUUUAGACUGGGCAGAGCUCAACACAGCGUGGCAAAGUGGCUGUGGCUAGACUGCCUCUCUGGAUUCCUCGUCACUCAGCAGGGCGUCUCUGAGAGAAGUGCC [G48A A129G A142G] | 1.1 |
